Article PMC4336329 (PLoS ONE, 2015)
In all, about 310,000 compounds went through this assay and about 14,000 (4.5%) showed an effect of 50% or more. Effects have a minus sign here. The list shows a part of the results.

molecular target: human ether-à-go-go-related gene (hERG) potassium channel (human, UniProt Q12809); experiment: primary screen, population patch clamp on CHO cells stably expressing hERG
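Also: peak tail current of the secondary pulse compared with the same well before compound.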

Chain of human ether-à-go-go-related gene (hERG) potassium channel (Q12809 whole entry, looked up): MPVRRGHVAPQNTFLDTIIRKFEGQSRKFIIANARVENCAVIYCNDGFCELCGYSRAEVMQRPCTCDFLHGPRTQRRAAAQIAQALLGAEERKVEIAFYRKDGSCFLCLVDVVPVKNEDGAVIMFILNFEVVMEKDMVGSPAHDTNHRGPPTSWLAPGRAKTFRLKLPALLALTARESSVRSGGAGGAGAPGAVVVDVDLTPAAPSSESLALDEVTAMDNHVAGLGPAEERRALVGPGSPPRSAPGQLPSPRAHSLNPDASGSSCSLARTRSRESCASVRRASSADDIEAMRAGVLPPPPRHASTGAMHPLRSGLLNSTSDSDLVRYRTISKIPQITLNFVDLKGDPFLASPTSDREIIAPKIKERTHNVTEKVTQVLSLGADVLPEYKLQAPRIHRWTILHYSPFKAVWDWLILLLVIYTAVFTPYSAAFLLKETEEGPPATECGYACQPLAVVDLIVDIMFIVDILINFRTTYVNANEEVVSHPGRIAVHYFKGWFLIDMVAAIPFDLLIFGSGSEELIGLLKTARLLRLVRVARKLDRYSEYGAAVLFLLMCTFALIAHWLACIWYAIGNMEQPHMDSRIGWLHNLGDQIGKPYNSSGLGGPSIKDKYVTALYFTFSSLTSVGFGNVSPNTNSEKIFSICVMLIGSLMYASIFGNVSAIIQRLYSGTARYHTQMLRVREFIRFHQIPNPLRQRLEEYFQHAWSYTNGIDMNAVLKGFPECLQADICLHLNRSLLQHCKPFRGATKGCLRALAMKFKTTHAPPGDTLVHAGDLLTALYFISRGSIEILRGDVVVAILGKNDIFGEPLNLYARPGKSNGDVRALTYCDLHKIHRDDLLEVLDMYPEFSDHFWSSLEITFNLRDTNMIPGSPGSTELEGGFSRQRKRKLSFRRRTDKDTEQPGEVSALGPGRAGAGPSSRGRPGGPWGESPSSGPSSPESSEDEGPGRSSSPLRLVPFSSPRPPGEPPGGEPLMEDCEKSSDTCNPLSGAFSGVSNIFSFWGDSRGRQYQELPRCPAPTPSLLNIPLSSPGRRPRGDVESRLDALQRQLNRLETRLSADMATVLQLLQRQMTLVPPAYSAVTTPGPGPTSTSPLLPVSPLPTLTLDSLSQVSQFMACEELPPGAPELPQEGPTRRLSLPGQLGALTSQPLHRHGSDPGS

Row | SMILES | hERG current change (%, negative = inhibition) at 10uM [%]
1 | COc1ccc(CCNC(=O)COC(=O)c2ccco2)cc1OC | 15.4
2 | C=CCn1cc(C(=O)N2CCc3ccccc3C2)c(=O)c2cc(S(=O)(=O)N(CC)CC)ccc21 | -45.7
3 | Cc1cc(C)n(C2CC(=O)N(c3ccc(Cl)c(Cl)c3)C2=O)n1 (centres unmarked) | 0.639
4 | Cc1ccc(NC(=O)C2CSC3(C)CCC(=O)N23)cc1S(=O)(=O)N1CCOCC1 (centres unmarked) | 2.81
5 | COCc1nc(-c2cc(Br)ccc2OC)no1 | -4.25
6 | Cn1c(CC(=O)Nc2ccccc2F)nnc1SCC(=O)N1CCOCC1 | 12.4
7 | N/C(=N\OC(=O)c1ccc2ccccc2c1)c1ccccn1 | 28.3
8 | CCOC(=O)Cc1csc(NC(=O)COc2ccc3c(c2)CCC3)n1 | -1.14
9 | CCn1c(SCC(=O)Nc2ccccc2C(=O)OC)nnc1-c1cccc(C)c1 | -36.2
10 | OC1CCN(Cc2cn(Cc3ccccc3)nc2-c2cc3ccccc3o2)CC1 | -50.7
11 | O=C(O)C1CSC(c2coc3ccccc3c2=O)N1 (centres unmarked) | 7.24
12 | CCOC(=O)c1ccc(N2C(=O)CC(C3CCCO3)C2=O)cc1 (centres unmarked) | -11.2
13 | COc1ccc(C2=NS(=O)(=O)N(C)C(C(=O)NCc3cccs3)=C2)cc1OC | -53.9
14 | Cc1ccc(CNC(=O)C2CCCN2S(=O)(=O)c2ccc(F)cc2)cc1 (centres unmarked) | 0.876
15 | Cc1cccc(C(C(=O)NC2CCCCC2)N(Cc2cccnc2)C(=O)c2csnn2)c1 (centres unmarked) | -1.78
16 | Cc1cnc(NC(=O)CSc2ncn(-c3ccccc3)n2)s1 | -12.9
17 | O=C(Nc1ccc(F)cc1)C1C(c2ccccc2)C1(Cl)Cl (centres unmarked) | -8.21
18 | Cc1ccc(S(=O)(=O)N2CCC(C(=O)OCC(=O)N(C)C3CCCCC3)CC2)cc1C | -12.1
19 | CC1CCC(NC(=O)C2CCC(CNS(=O)(=O)c3ccccc3)CC2)CC1 (centres unmarked) | 22.1
20 | CNc1ccccc1C(C)(C)c1cc(-c2ccco2)n[nH]1 | -9.17
21 | CS(=O)(=O)c1ccc(-c2cccc(NC(=O)COc3ccc(Cl)cc3)c2)nn1 | 6.7
22 | COc1cc(Cl)c(C)cc1NC(=O)CC1CCCC1 | 2.62
23 | Cc1c(C(=O)NCc2ccccn2)oc2ccc(S(=O)(=O)N3CCOCC3)cc12 | -7.04

Row | SMILES | hERG current change (%, negative = inhibition) at 10uM [%]
24 | Cc1ccc(-n2[nH]c(C)c(CCC#N)c2=O)cc1 | 2.48
25 | O=S(=O)(Nc1ccc2c3c(cccc13)CC2)c1ccc(F)cc1 | -3.9
26 | CSc1ncccc1C(=O)OCC(=O)NC1CCCCC1 | -4.1
27 | CC(=O)c1c(C)[nH]c(C(=O)N2CCc3ccccc32)c1C | 9.47
28 | N/C(=N\OC(=O)c1ccccc1)c1cccnc1 | 29.9
29 | Cc1ccc(-n2nnnc2CNC(=O)c2ccc3c(c2)OCO3)cc1C | 12.3
30 | O=C(Nc1ccc2c(c1)OCO2)C1CC(c2cccc(Br)c2)=NO1 (centres unmarked) | -3.43
31 | CC1CCCC(NC(=O)c2cccc(S(=O)(=O)NCc3ccccc3)c2)C1C (centres unmarked) | -25.3
32 | Cl.O=C(NCCN1CCOCC1)c1cc2ccccc2o1 | 2.42
33 | O=[N+]([O-])c1ccc(S(=O)(=O)Nc2ccc(-c3csc(-c4ccccc4)n3)cc2)cc1 | 13.7
34 | COc1ccccc1OCc1nnc(SCC(=O)Nc2nnc(C3CC3)s2)n1C | 17.7
35 | CC(C)CN1C(=O)/C(=C(/C#N)C(=O)NC2CCCCC2)c2ccccc21 | 10.3
36 | Cc1ccccc1OCC(=O)Nc1ccc2[nH]ncc2c1 | -3.56
37 | CCOc1ccc(NC(=O)COc2ccccc2C(=O)NCc2ccccc2)cc1 | -22.9
38 | Cn1c(CSCc2ccccc2)nnc1SCC(=O)Nc1ccc(C(=O)O)cc1 | 4.3
39 | CCOc1ccccc1NS(=O)(=O)c1ccc2[nH]c(=O)ccc2c1 | -13.7
40 | CCOC(=O)Cc1cc(=O)n2[nH]cc(-c3cccc(Br)c3)c2n1 | 35.6
41 | COc1ccc(C(C(=O)NCC2CCCO2)N(C(=O)Cn2nnc3ccccc32)c2ccc(NC(C)=O)cc2)cc1OC (centres unmarked) | 16.7
42 | Cc1cc(C)c(S(=O)(=O)N2CCCC(C(=O)N3CCOCC3)C2)c(C)c1 (centres unmarked) | -17.7
43 | CCOc1ccc(CCNC(=O)C2CC(C)=CCC2C(=O)O)cc1OCC (centres unmarked) | 19.2
44 | CN1C(=O)c2ccc(C(=O)NCc3ccc4c(c3)OCO4)cc2C1=O | -15.7
45 | COc1ccccc1C(=O)Nc1ccc(S(=O)(=O)N(C)c2ccccc2)cc1 | 7.19
46 | CCCCCc1ccc(CC(=O)Nn2c(C)nc3ccccc3c2=O)cc1 | -16.9

Row | SMILES | hERG current change (%, negative = inhibition) at 10uM [%]
47 | CC12CC3CC(C)(C1)CC(C(=O)N1CCN(C(=O)C4CCCO4)CC1)(C3)C2 (centres unmarked) | 13.4
48 | CCOC(=O)c1c(NC(=O)CSc2ncn[nH]2)sc(C(=O)NC)c1C | -7.99
49 | CCOc1cc(C(=O)NCC(=O)N/N=C/c2sccc2C)cc(OCC)c1OCC | 3.96
50 | CCN1CCN(C(=O)c2ccc3c(c2)N(Cc2ccccc2)C(=O)c2ccccc2S3(=O)=O)CC1 | 3.91
51 | N/C(=N\OC(=O)c1ccc(Cl)cc1)c1nonc1N | 15.5
52 | O=C(COC(=O)c1ccc(S(=O)(=O)NCc2ccco2)cc1)NC1CCCCCC1 | -1.42
53 | CCN(CC)CCNC(=O)c1ccc2c(=O)n(C3CCCC3)c(=S)[nH]c2c1 | -42.8
54 | O=C(c1ccccc1[N+](=O)[O-])N1CCC2(CC1)OCCO2 | 3.53
55 | Cc1cc(NS(=O)(=O)c2ccc(NC(=O)Nc3ccccc3)cc2)no1 | -5.51
56 | c1ncn(C23CC4CC(CC(C4)C2)C3)n1 | 24.7
57 | CCc1ccc(NC(=O)C2CCCN(S(=O)(=O)c3ccc4[nH]c(=O)ccc4c3)C2)cc1 (centres unmarked) | 13.8
58 | COC(=O)CCCC1=CC2=CC(=O)C(C)(OC(=O)c3ccco3)C(=O)C2=CO1 (centres unmarked) | 0.0796
59 | CC(C)(C)c1ccc(C2(C)NC(=O)N(CC(=O)Nc3ccc4c(c3)OCO4)C2=O)cc1 (centres unmarked) | 0.52
60 | c1ccc(Oc2ccc(-c3ccnc4ncnn34)cc2)cc1 | 10.7
61 | Cc1ccnc(NC(=O)c2sc3cc(Cl)ccc3c2Cl)c1 | 15
62 | COc1cccc(NC(=O)Nc2cccs2)c1 | 1.52
63 | CCCn1c(=N)c(S(=O)(=O)c2ccc(F)cc2)cc2c(=O)n3cccc(C)c3nc21 | -4.16
64 | CC1=CC(C)(C)NC(=S)N1c1ccccc1C | -3.76
65 | Cc1nnc(NC(=O)CN2C(=O)c3ccccc3S2(=O)=O)s1 | -4.27
66 | Cc1ccc2c(c1)c1c(n2CC2COC(C)(C)O2)C(=O)CCC1 (centres unmarked) | -25.2
67 | O=C(/C=C/c1c[nH]c2ccccc12)c1cccc2ccccc12 | 7.95
68 | Cc1cccc(OCC(O)CN2C(C)(C)CC(O)CC2(C)C)c1 (centres unmarked) | -33.2
69 | CCN(CC)C(=O)c1cc2c(=O)c3cc(F)ccc3oc2nc1C | -10.8

Row | SMILES | hERG current change (%, negative = inhibition) at 10uM [%]
70 | Nc1nonc1C(=O)NCCN=Cc1cc(Cc2ccccc2)cc(Br)c1O | -6.36
71 | CC(=O)Nc1ccccc1NC(=O)C/C(C)=N/NC(=O)c1ccc([N+](=O)[O-])c(Cl)c1 | 25.1
72 | O=C(Nc1cccc(F)c1)c1ccc(Br)o1 | -10.8
73 | COc1ccc(C(=O)N/C(=C\c2ccco2)C(=O)OCc2ccco2)cc1 | -22.2
74 | Cc1ccccc1C1=N/C(=C/c2cccs2)C(=O)O1 | 18.6
75 | COc1ccccc1Cc1noc(-c2cc(Cl)ccc2OC)n1 | 7.34
76 | CCN1CCN(C(C(=O)NC2CCCC2)c2cc3c(cc2[N+](=O)[O-])OCO3)CC1 (centres unmarked) | -1.51
77 | O=C(CCC(=O)Nc1ccccc1)NNS(=O)(=O)c1ccc(Cl)cc1 | 6.88
78 | Cn1c(/N=C/c2c[nH]c3ccccc23)nc2ccccc21 | 14.5
79 | COc1cccc(/C=C/C(=C2/C(=O)N(c3ccccc3)N=C2C)c2ccc(C)cc2)c1OC | 5.82
80 | Cc1ccc(/C=N/Nc2nc(C(C)(C)C)cs2)o1.Cl | -22.5
81 | O=C1CSCC(=O)N1Cc1ccc(Cl)c(Cl)c1 | -7.26
82 | CC(C)(C)c1ccc(-n2ncc3c2CCCC3NC(=O)CN2CCCC2=O)cc1 (centres unmarked) | -6.16
83 | O=C1NCCCCC1NS(=O)(=O)c1cccc2ccccc12 (centres unmarked) | 6.62
84 | O=C(/C=C/c1cccs1)Nc1ccc(Br)cn1 | 14.7
85 | N#Cc1ccc(CSc2nc(N)cc(=O)[nH]2)cc1 | -35.6
86 | CC1CCCC(N2CCN(C(=O)c3ccc(F)cc3)CC2)C1 (centres unmarked) | -44.1
87 | CCN(CC)C1CCN(c2nc3nonc3nc2NCCOC)C1 (centres unmarked) | -3.27
88 | CCC(=O)N(CCc1ccccc1C)Cc1cc2ccc(C)cc2[nH]c1=O | 9.02
89 | Cc1ccc(NC(=O)N(CCCN2CCOCC2)Cc2cccnc2)cc1C | -10.8
